In PubChem BioAssay AID1508642 (National Center for Advancing Translational Sciences (NCATS), 2021):
Screen size: about 43,000 compounds; about 200 (0.47%) were called active. Not shown: some 12% with an inconclusive outcome. Calls follow the shape of the dose curve; as a rule, active = well fitted cell-killing curve with a large enough effect; inconclusive = small, poorly fitted or top-dose-only effect, or effect the other way; inactive = flat fitted curve, though single readings scatter. The list shows a part of the results.

assay: Cell viability qHTS assay in S16 Pmp22-F2sN cells; settings: S16 Pmp22-F2sN Schwann cells (luciferase reporters placed in the Pmp22 gene) viability, CellTiter-Glo, 24 h; series mostly up to 57.5 µM; activity change, negative = cytotoxicity: at the top concentration; also: nearly all actives have a fitted effect of over 65% in size
In short: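 Rat S16 Schwann reporter line, 24 h treatment with library compounds delivered at 23 nL per well. Cell viability by CellTiter-Glo luminescence.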
% is scaled to controls: 0 for no effect and ±100 for the full control effect.

SMILES | activity change, negative = cytotoxicity
CCn1cc(C(=O)N2CCN(c3cc(Cl)ccc3C)CC2)c(=O)c2cc(S(=O)(=O)N3CCCCC3)ccc21 | inactive: -10.9%
O=C(CSc1nc(-c2ccccc2)nc2cc(=O)[nH]n12)Nc1ccccc1 | inactive: 27.4%
CCc1nc(-c2ccc(C)c(S(=O)(=O)N3CCN(c4ccc(C(C)=O)cc4)CC3)c2)no1 | inactive: -17.8%
Cc1ccccc1C(=O)N1c2ncnn2C2(CCCCC2)[C@@H]2CCCC[C@@H]21 | inactive: -17.9%
Cc1cccc(C)c1NC(=O)c1sc(-n2nc(C)c(Cc3ccc4c(c3)OCO4)c2C)nc1C | inactive: 1.18%
Clc1ccc(NCc2nc3ccccc3n2CCOc2ccccc2)cc1 | inactive: -2.34%
COc1ccc(Cl)cc1NC(=O)Cn1c(=O)c2ccccc2n2nncc12 | inactive: 9.93%
CCC(C(=O)Nc1ccc(C)c(Cl)c1)n1c(=O)c(-c2ccccc2NC(C)=O)nc2ccccc21 (stereo not drawn) | inactive: -2.35%
Cc1nc(-n2nc(C)c(CCC(C)C)c2C)sc1C(=O)Nc1cccc(Cl)c1 | inactive: -8.33%
CCN(C(=O)CSc1nc2ccccc2nc1Cc1ccc(F)cc1)c1cccc(C)c1 | inactive: -15.1%
COc1cc(CNCCSc2nnnn2C)ccc1OCc1ccc(Cl)cc1Cl | inactive: -21.6%
Cc1ccc(NC(=O)Cn2nc3c(cc2=O)CCCC3)cc1Cl | inactive: 8.36%
COc1ccc(C(=O)Nc2nc3ccccc3n2CCOc2ccc(Cl)cc2)cc1 | inactive: -15.7%
CCOc1ccc(N(CC)C(=O)CCc2nc(-c3ccccc3F)no2)cc1 | inactive: -2.92%
CNC(=O)c1cnc2sc(N3CCCCCC3)nn2c1=O | inactive: 7.12%
CCCOc1ccc(Oc2nc(NCC(C)C)nc(N(C)C)n2)nn1 | inactive: -12.3%
CCc1ccc(NC(=O)C(Cc2ccccc2)NS(=O)(=O)c2ccc3c(c2)c(=O)n(C)c(=O)n3C)cc1 (stereo not drawn) | inactive: 17.7%
CCC(Sc1nnc(-c2ccc(OC)c(OC)c2)c(-c2ccc(OC)c(OC)c2)n1)C(=O)NC1CCCC1 (stereo not drawn) | inactive: 4.37%
COc1cccc(NC(=O)Cn2nc(C)c3c(C)n(-c4ccccc4)nc3c2=O)c1 | inactive: -10.2%
Cc1cccn2c(=O)cc(CSc3nnc(NC(=O)c4ccc(F)cc4)s3)nc12 | inactive: 0.635%
O=C(NCCc1ccccc1)c1ccc(Cn2c(SCc3ccccc3)nc3cccnc32)cc1 | inactive: -0.771%

SMILES | activity change, negative = cytotoxicity
COc1ccc(-c2nc(CNS(=O)(=O)c3cccc(F)c3)cs2)cc1 | inactive: 8.44%
CCOc1ccccc1NC(=O)C1=C(C)Nc2ncnn2C1c1ccc(C)o1 (stereo not drawn) | inactive: -0.997%
O=[N+]([O-])c1cc(-c2nc(-c3ccccc3)no2)ccc1N1CCOCC1 | inactive: -0.238%
COc1ccc(-c2nc(CCNC(=O)c3ccc(Br)o3)cs2)cc1 | inactive: -4.07%
CCc1ccccc1NC(=O)Cn1c(SCc2ccc(F)cc2)nc2ccncc21 | inactive: -9.49%
Cc1cccc(NC(=O)c2oc3ccccc3c2NC(=O)Cc2coc3ccc(C(C)C)cc23)c1 | inactive: -1.56%
CCc1cccc(CC)c1NC(=O)CCS(=O)(=O)c1ccc2c(c1)CCN2C(C)=O | inactive: 11.4%
CC1CCN(C(=O)C2COc3ccccc3C2)CC1 (stereo not drawn) | inactive: 0.791%
O=C(CCCn1c(=O)c2cccn2c2ccccc21)NCc1ccccc1Br | inactive: -10.5%
COc1ccc(CNC(=O)CSc2c3c(nc4ccc(Cl)cc24)CCCC3)cc1 | inactive: 16.8%
CCc1nn(CC(=O)Nc2ccc(NC(C)=O)cc2)c(=O)c2cc3sccc3n12 | inactive: -14.2%
COc1ccc(S(=O)(=O)NCc2nc3nc(C)cc(C)n3n2)cc1OC | inactive: -1.55%
COc1ccc(Nc2c3c(nc4nncn24)CCC3)cc1OC | inactive: 10.6%
COCCNC(=O)CN1C(=O)c2cccnc2Oc2ccc(Cl)cc21 | inactive: 14.7%
Cc1ccc(S(=O)(=O)N(CCc2ccccc2)CC(=O)Nc2ccc(Br)cc2)cc1 | inactive: 1.41%
CCOC(=O)c1ccc(N2C(=O)c3n[nH]c(-c4ccco4)c3C2c2cccc(O)c2)cc1 (stereo not drawn) | inactive: 5.71%
O=C(Cn1cnc2onc(-c3ccc(Cl)cc3)c2c1=O)Nc1ccc(F)cc1 | inactive: -16.8%
COCC(C)Nc1ncnc2c1cnn2-c1ccc(C)c(C)c1 (stereo not drawn) | inactive: 5.73%
CCCOc1ccc(C2CC(=O)Nc3c2c(=O)n(C)c(=O)n3C)cc1OC (stereo not drawn) | inactive: 16.3%
CCOc1ccc(N2CC(NC(=O)C3CC3)CC2=O)cc1 (stereo not drawn) | inactive: -6.27%
COc1ccc(-n2nc(C(=O)NCc3ccc(F)cc3Cl)c3c4ccccc4n(C)c3c2=O)cc1Cl | inactive: 9.32%

SMILES | activity change, negative = cytotoxicity
Clc1ccc(Nc2c(-c3ccccc3Cl)nc3ccc(Cl)cn23)cc1 | inactive: 21.1%
COc1ccc(C)cc1NC(=O)c1cc(S(=O)(=O)N2CCN(c3cccc(C)c3C)CC2)ccc1F | inactive: -9.95%
CCCn1c2ccc(F)cc2c2nnc(SCCN(CC)CC)nc21 | inactive: -23.1%
Cc1ccc(C(=O)Nc2cccc(C(=O)OCc3cc(=O)n4nc(C5CC5)sc4n3)c2)cc1 | inactive: 4.14%
Cn1c(=O)c(=O)n(C)c2cc(S(=O)(=O)N3CCN(c4ccccc4)CC3)ccc21 | inactive: 28.2%
Cc1cccc(C(=O)Oc2c(Sc3ccccc3)c(C)nn2C(C)(C)C)c1 | inactive: -3.01%
CC(NC(=O)c1ccc2c(c1)sc1nc(-c3ccccc3)cn12)C12CC3CC(CC(C3)C1)C2 (stereo not drawn) | inactive: 7.07%
CCCCN(CC)CCCNC(=O)Cn1ncc2c3ccccc3n(Cc3ccc(F)cc3)c2c1=O | inactive: 5.78%
Cc1ccc(CN2CCCn3nc(C(=O)NCCc4cccc(C)c4)cc3C2=O)cc1 | inactive: -10.7%
CCOC(=O)c1c(S(=O)(=O)N2CCCC(C(=O)NCc3ccccc3OC)C2)c(C)n(C)c1C (stereo not drawn) | inactive: -2.8%
CCc1nc(SC)ncc1C(=O)N1CCN(c2cc(C)ccc2C)CC1 | inactive: 5.1%
Cc1ccc(NC(=O)c2ccc(=O)n(Cc3ccccc3C)c2)c(C)c1 | inactive: -1.28%
COc1cccc(CNC(=O)C2CCCN(c3nc4ccccc4n4cccc34)C2)c1 (stereo not drawn) | inactive: 12.3%
Cc1nn(C)c2c1c(-c1ccccc1)cc(=O)n2CC(=O)NC(C)C | inactive: -3.66%
Cc1ccc(CN2CCCn3nc(C(=O)NCCc4ccccc4Cl)cc3C2=O)cc1 | inactive: -1.99%
COc1ccc(CCNCc2ccc3c(c2)n(C)c(=O)n3C)cc1OC | inactive: -3.44%
Cc1ccc(CNC(=O)c2ccc3c(O)c(S(=O)(=O)c4ccc(Cl)cc4)c(=O)[nH]c3c2)cc1 | inactive: 2.28%
Cc1ccc(-c2nc(N3CCCC(C)C3)c3ccccc3n2)cc1 (stereo not drawn) | inactive: 12.3%
CCc1ccccc1NC(=O)CSc1nc2c(oc3ccccc32)c(=O)n1C | inactive: -3.75%
NC(=O)C1CCN(S(=O)(=O)c2ccc(N3CCCCS3(=O)=O)cc2)CC1 | inactive: -9.78%
COc1ccc(-c2nn(-c3ccccc3)cc2C2NC(=O)NC(C)=C2C(=O)OC(C)C)cc1OC (stereo not drawn) | inactive: 13.1%
